# Hit rate of the full screen: of about 340,000 compounds, about 6,900 (2%) were called active. Cut-off read from the data, not from the text of the source: active = inhibition above about 30%; inactive = below that, where a call was filed. Only a part is listed here, and it is no random draw. Entries without a call were filed so in the source.
# Molecular target: D(2) dopamine receptor (Homo sapiens) (UniProt P14416)
# Assay: HTS Assay for Allosteric Antagonists of the Human D2 Dopamine Receptor: Primary Screen for Antagonists; note: 0% is about no effect
# Details: HEK293 TREx D2 cells, calcium flux, dopamine EC80; at 10 µM; stronger effect = higher value
# Procedure, shortened: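 Read-out: kinetic calcium fluorescence (1 cycle/s) in inducible HEK293 T-REx D2 cells after an EC80 dopamine addition that followed 180 s compound preincubation. Loss of the dopamine response indicates antagonism.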
# Sequence of UniProt P14416 (P14416 whole entry, looked up): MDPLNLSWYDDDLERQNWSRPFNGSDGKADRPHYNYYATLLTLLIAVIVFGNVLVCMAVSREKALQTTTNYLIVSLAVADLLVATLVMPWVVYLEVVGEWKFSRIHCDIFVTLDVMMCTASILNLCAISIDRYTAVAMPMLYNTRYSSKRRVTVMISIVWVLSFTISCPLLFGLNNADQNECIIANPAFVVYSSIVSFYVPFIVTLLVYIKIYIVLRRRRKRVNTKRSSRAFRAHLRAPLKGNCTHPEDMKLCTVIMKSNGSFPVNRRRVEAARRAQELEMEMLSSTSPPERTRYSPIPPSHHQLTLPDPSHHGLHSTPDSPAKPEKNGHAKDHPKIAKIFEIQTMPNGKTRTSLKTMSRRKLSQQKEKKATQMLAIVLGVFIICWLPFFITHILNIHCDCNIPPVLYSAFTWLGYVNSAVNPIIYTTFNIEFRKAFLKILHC
row,SMILES,inhibition
1,Cc1ccc(NC(=O)c2c(NC(=O)c3ccc(F)cc3)sc3c2CCCC3)cc1C,-7.36%
2,CC(C)(C)OC(=O)N1CCC(c2c(C(=O)NCC3CCN(C4CCCC4)C3)cnn2-c2ccccc2Cl)CC1 (stereo not given),active: 46.1%
3,COc1cccc(-c2noc(COc3ccc(C(C)(C)C)cc3)n2)c1,-4.21%
4,Cc1ccccc1NS(=O)(=O)c1ccc2[nH]cc(C(=O)NC3CCCCC3)c(=O)c2c1,-5.73%
5,Cc1ccc(NC(=O)c2oc3ccc(S(=O)(=O)N4CCCCCC4)cc3c2C)c(C)c1,22.5%
6,CCn1c(=O)c2cc(C(=O)NC3CCC(C)CC3)sc2c2ccccc21 (stereo not given),-9.02%
7,CCn1c(C(=O)Nc2c(C)cccc2C)cc2sc(Cl)cc21,1.55%
8,COc1cccc(NC(=O)N(Cc2c[nH]c3ccccc23)C2CCCCCC2)c1,18.1%
9,CN(C(=O)c1cc2c(Cl)nc3ccccc3c2s1)c1cccc(C(F)(F)F)c1,-5.54%
10,O=C(Cn1nc(-c2ccccc2)c2c(c1=O)CCCC2)Nc1ccc(F)c(Cl)c1,9.65%
11,CCN(C(=O)CN1C(=O)COc2ccc(S(=O)(=O)N3CCOCC3)cc21)c1cccc(C)c1,-4.46%
12,O=C(NCCc1csc(-c2cccc(F)c2)n1)c1ccccc1C(F)(F)F,-0.709%
13,COC(=O)c1ccc(NC(=O)Cn2c(-c3nonc3N)nc3ccccc32)cc1,-9.09%
14,CCCc1cnc2c(c1SCC(=O)Nc1c(C)cc(C)cc1C)c(=O)n(C)c(=O)n2C,10.9%
15,CCc1nn(-c2ccccc2)c2nc(-c3ccc(O)cc3)c3cc(OC)c(OC)cc3c12,5.41%
16,Cc1cccc(-c2nc(CN3CCCC(C(=O)NCc4ccc(Cl)cc4)C3)c(C)o2)c1 (stereo not given),3.53%
17,CCOC(=O)N1CCC2(CC1)OC(=O)C(C)=C2C(=O)NCc1ccc(C)cc1,-7.95%
18,CCNC(=O)c1ccc(CSc2nc3cccnc3n2Cc2ccc(OC)cc2)cc1,-1.74%
19,COC(=O)Cn1ccc2cc(S(=O)(=O)N3CCCCCC3)ccc21,0.912%
20,Cc1ccc(OCc2nnc(SCC(=O)Nc3ccccc3C(C)C)o2)cc1,-5.07%

row,SMILES,inhibition
1,CCc1ccc(NC(=O)c2ccc3nc(C(C)C)oc3c2)cc1,11.8%
2,CCOC(=O)c1cc(C)n(CC2CCC(C(=O)Nc3ccc(C)cc3)CC2)c1C (stereo not given),-1.87%
3,CCc1ccc(-c2cc(C)no2)cc1S(=O)(=O)N1CCN(c2ccc(F)cc2)CC1,active: 35.5%
4,COc1cc(OC)c(NC(=O)Cn2c(=O)cc(C)c3c(C)nn(-c4ccc(C)cc4)c32)cc1Cl,3.51%
5,CSc1ccc(-c2nc3c(C)cccn3c2Nc2ccc3c(c2)OCCO3)cc1,9.38%
6,CSc1ccc(C(=O)Nc2ccc(-c3nc4ccccc4s3)c(O)c2)cc1,-22.4%
7,O=C(NCc1ccc(F)cc1)C1CCCCN1S(=O)(=O)c1ccc(F)cc1 (stereo not given),3.59%
8,COc1ccc2c(c1)c1c(c(=O)n(Cc3ccccc3)c(=O)n1CC(=O)NCc1ccc(C)cc1)n2C,-3.26%
9,COc1ccc(N2CCN(C(=O)CCC(=O)NNc3nc4ccccc4c4nc(C)nn34)CC2)cc1,-5.04%
10,Cc1ccc(C)c(N2CCN(C(=O)c3ccc(Nc4nc5ccccc5n5nnnc45)cc3)CC2)c1,1.76%
11,Cc1ccccc1NC(=O)Cn1c(=O)n(Cc2ccc3c(c2)OCO3)c(=O)c2ccc(C(=O)NC3CCCCC3)cc21,-3.36%
12,CC(=O)c1cccc(NC(=O)c2oc(=O)c3ccccc3c2-c2ccccc2)c1,-10.3%
13,CC(C)CN(CCNC(=O)c1cn(C)c2ccc(S(=O)(=O)N3CCOCC3)cc2c1=O)CC(C)C,16%
14,COc1ccccc1N1CCN(C(=O)C(=O)c2cn(CC(=O)N3CCCCCC3)c3ccccc23)CC1,active: 37.6%
15,CSCCC(NS(=O)(=O)c1ccc2c(c1)oc(=O)n2C)C(=O)NCc1ccccc1 (stereo not given),21.3%
16,Cc1ccc2cccc(NC(=O)c3ccc(-c4cccc(Cl)c4Cl)o3)c2n1,10.6%
17,Cn1nc(C(=O)NCc2ccc(F)cc2)c2c1-c1ccccc1SC2,20.6%
18,CC1CCN(C(=O)CN2c3ccc(C(C)C)cc3-c3ccccc3S2(=O)=O)CC1,18.5%
19,Cc1cc(-c2ccccc2)n2nc(-c3cccc(Br)c3)cc2n1,-20.6%
20,Cc1ccc(-c2c(C(=O)NCc3ccc(F)cc3)oc(=O)c3ccccc23)cc1,-7.41%

row,SMILES,inhibition
1,CCc1ccc(NC(=O)N2c3ccccc3Sc3ccccc32)cc1,-17.7%
2,CCN(Cc1ccccc1)S(=O)(=O)c1ccc2c(c1)CCCN2C(C)=O,-11%
3,Cc1ccc(C)c(Cn2cnc3c(cnn3-c3ccc(F)cc3)c2=O)c1,4.12%
4,Cc1nn(-c2ccccc2)c(Cl)c1/C=N/NC(=O)CNC(=O)c1ccccc1Cl,active: 46.1%
5,COc1ccc(CCNS(=O)(=O)c2ccc(N3CCCCS3(=O)=O)cc2)cc1OC,14.1%
6,Cc1nc2c(-c3ccccc3)c(C)nn2c(C)c1CCC(=O)NCc1ccc(Cl)cc1,-17.1%
7,Cc1ccc(CNC(=O)CCCN2C(=O)CCn3nc(-c4cn(C)c5ccccc45)cc32)cc1,22.7%
8,Cc1ccc(Cn2c(CCCNC(=O)c3ccco3)nc3ccccc32)cc1,22.9%
9,COc1ccc(NC(=O)CC2C(=O)N(c3ccccc3)C(=O)N2C2CCCCC2)cc1 (stereo not given),3.05%
10,O=C(Cn1cnc2onc(-c3ccc(F)cc3)c2c1=O)Nc1cccc(C(F)(F)F)c1,0.902%
11,CS(=O)(=O)N(CC(=O)NCCSCc1ccccc1)c1cc(C(F)(F)F)ccc1Cl,-20.1%
12,COc1ccccc1CNC(=O)c1cc2cccc3c2n1CC(C)S3 (stereo not given),2.55%
13,CCOC(=O)c1ccc(NC(=O)c2nc(SC(C)C)ncc2Cl)cc1,-15.1%
14,COc1cccc(CNC(=O)C2CCN(Cc3cc4ccccc4n3Cc3ccc(C)cc3)CC2)c1,-26.8%
15,COc1ccc2oc(=O)c(C(=O)Nc3cccc(C(=O)O)c3)cc2c1,-7.23%
16,COc1cc(-c2cc3n(C)c(C)c(CCC(=O)NCc4ccccc4)c(=O)n3n2)cc(OC)c1OC,25.7%
17,CCOC(=O)c1cc2c(=O)n3ccccc3nc2n(C)c1=NC(=O)c1c(-c2ccccc2Cl)noc1C,-2.12%
18,COc1cc2[nH]c(C(=O)Nc3ccc(F)cc3)cc2c(OC)c1OC,active: 89%
19,CC(C)(C)CN1CCC(Oc2cccc(C(=O)N3CCNC(=O)C3(C)C)c2)CC1,active: 31.6%
20,COc1ccc(-n2cc(C(=O)Nc3cc(F)ccc3F)c3ccccc3c2=O)cc1,-22.3%
